Experimental data reported in paper PMC4336329 (PLoS ONE, 2015).
In all, about 310,000 compounds went through this assay and about 2,200 (0.71%) showed an effect of 50% or more. Effects have a minus sign here. This is one part of the list.

Target: human ether-à-go-go-related gene (hERG) potassium channel (human, UniProt Q12809)
Experiment: primary screen, population patch clamp on CHO cells stably expressing hERG

Sequence of human ether-à-go-go-related gene (hERG) potassium channel (Q12809 whole entry, looked up): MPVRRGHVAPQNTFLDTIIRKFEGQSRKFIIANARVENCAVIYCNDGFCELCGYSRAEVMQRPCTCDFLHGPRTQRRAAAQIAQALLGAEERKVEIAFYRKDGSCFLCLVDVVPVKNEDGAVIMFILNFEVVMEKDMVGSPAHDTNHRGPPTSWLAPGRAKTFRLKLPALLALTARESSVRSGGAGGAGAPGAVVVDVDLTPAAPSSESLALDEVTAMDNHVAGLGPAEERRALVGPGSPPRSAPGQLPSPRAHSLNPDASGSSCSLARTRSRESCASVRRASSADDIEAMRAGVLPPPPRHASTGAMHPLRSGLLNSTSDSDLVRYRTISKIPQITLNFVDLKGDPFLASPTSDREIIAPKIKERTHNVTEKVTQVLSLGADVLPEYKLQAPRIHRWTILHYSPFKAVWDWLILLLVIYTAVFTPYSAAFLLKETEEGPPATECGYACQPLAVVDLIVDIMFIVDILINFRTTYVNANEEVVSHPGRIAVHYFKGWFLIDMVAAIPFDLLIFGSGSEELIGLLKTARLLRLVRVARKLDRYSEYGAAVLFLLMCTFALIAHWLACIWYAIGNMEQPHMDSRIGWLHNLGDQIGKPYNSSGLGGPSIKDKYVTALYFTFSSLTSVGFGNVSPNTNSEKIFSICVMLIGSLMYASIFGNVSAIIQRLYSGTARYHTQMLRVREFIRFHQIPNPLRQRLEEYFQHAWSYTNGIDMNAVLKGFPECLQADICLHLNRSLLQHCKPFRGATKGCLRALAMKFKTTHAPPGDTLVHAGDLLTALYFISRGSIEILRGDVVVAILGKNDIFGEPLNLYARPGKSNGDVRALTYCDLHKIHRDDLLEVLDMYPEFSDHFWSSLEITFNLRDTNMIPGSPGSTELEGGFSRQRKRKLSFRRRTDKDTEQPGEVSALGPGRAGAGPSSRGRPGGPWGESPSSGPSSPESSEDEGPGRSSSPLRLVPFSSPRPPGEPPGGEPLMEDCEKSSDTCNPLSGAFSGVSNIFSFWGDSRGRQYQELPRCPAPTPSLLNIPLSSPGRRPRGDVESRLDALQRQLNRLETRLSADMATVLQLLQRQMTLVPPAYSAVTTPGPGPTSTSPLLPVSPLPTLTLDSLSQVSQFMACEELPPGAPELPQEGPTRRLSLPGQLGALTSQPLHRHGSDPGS

Compared with `CCOc1ccccc1/C=N/N1CCN(Cc2ccccc2)CC1.Cl`, `COc1ccc(S(=O)(=O)N(CC(=O)N2CCN(c3ccccc3OC)CC2)c2ccccc2)cc1` is lower in “hERG current change (%, negative = inhibition) at 1uM” value: 16.9% for the first, 2.74% for the second.

Going from `COC(CNC(=O)CSCc1nc(-c2ccc(SC)cc2)oc1C)OC` to `Cc1ccc(C(=O)CSc2nnc(-c3cccs3)n2C)o1`, the “hERG current change (%, negative = inhibition) at 1uM” value rises from 5.17% to 7.9%.

Going from `FC(F)(F)Oc1ccc(NC(=S)Nc2ccccc2N2CCOCC2)cc1` to `O=C(O)C(F)(F)F.O=C1C(Cc2ccccc2)Nc2ncnc(N3CCOCC3)c2N1Cc1ccc(Cl)cc1` (centres unmarked), the “hERG current change (%, negative = inhibition) at 1uM” value falls from 8.69% to 7.65%.

Compared with `[O-]/C(=C(\C(=S)Nc1ccccc1F)[n+]1ccccc1)c1ccc(-c2ccccc2)cc1`, `O=C(Cc1cccc2ccccc12)Nc1ccc2oc(-c3ccccc3)nc2c1` is higher in “hERG current change (%, negative = inhibition) at 1uM” value: 5.99% for the first, 10.1% for the second.

Going from `Cc1ccc(/C=N/n2c(C)n[nH]c2=S)o1` to `CC(=O)c1ccccc1NC(=O)COC(=O)c1cc(C)oc1C`, the “hERG current change (%, negative = inhibition) at 1uM” value falls from 7.01% to -2.43%.

Compared with `COc1ccc(C(=O)NCCC2=CCCCC2)cc1S(=O)(=O)N1CCOCC1`, `COc1ccc(NC(=O)[C@@H](NC(=O)c2ccccc2F)C(C)C)cc1S(=O)(=O)N1CCOCC1` is higher in “hERG current change (%, negative = inhibition) at 1uM” value: -9.75% for the first, 2.17% for the second.

First: COc1ccc(NC(=O)CSc2n[nH]c(=O)n2Cc2ccccc2)cc1Cl
Second: Cc1c(C(=O)O)sc2c1c(=O)n(Cc1ccccc1)c(=O)n2C
The “hERG current change (%, negative = inhibition) at 1uM” value of the first is lower: 6.47% for the first, 17.3% for the second.

Compared with `O=C(c1ccc(C(=O)N2CCOCC2)s1)N1CCOCC1`, `O=C(Cc1ccc(S(=O)(=O)N2CCOCC2)s1)NCC1CCCCC1` is lower in “hERG current change (%, negative = inhibition) at 1uM” value: 13.5% for the first, -1.83% for the second.

First: CCOC(=O)c1ccc(NC(=O)C(CC)CC)cc1
Second: COc1ccc(C(=O)N2CCC(C(=O)Nc3ccc(C)cc3)CC2)cc1
The “hERG current change (%, negative = inhibition) at 1uM” value of the first is higher: 2.04% for the first, -31.9% for the second.

Compared with `O=C(COc1ccccc1)Nc1c(Cl)ccc2nsnc12`, `CCN(c1cccc(C)c1)S(=O)(=O)c1cccc2nsnc12` is lower in “hERG current change (%, negative = inhibition) at 1uM” value: 15.5% for the first, 14.4% for the second.

First: CCOc1cc(N2CCOCC2)c(OCC)cc1NC(=O)CN1C(=O)N(C)C2(CCCCC2)C1=O
Second: Cn1c(SCC(=O)N2CCOCC2)nc(O)cc1=O
The “hERG current change (%, negative = inhibition) at 1uM” value of the first is lower: 3.37% for the first, 11.9% for the second.

First: COc1cc(SC)ccc1C(=O)OCC(=O)N1CCCC1
Second: Cc1ccc2c(Cl)cc(Cl)c(OCC(=O)N3CCOCC3)c2n1
The “hERG current change (%, negative = inhibition) at 1uM” value of the first is higher: 8.95% for the first, 3.29% for the second.

Compared with `C/C(=N\NC(=O)CNC(=O)c1ccco1)c1ccc(Br)cc1`, `O=C(N/C(=C\c1ccc(Br)cc1)C(=O)N1CCOCC1)c1ccc(Br)o1` is lower in “hERG current change (%, negative = inhibition) at 1uM” value: 2.82% for the first, -15.3% for the second.

First: Cc1ccc(-n2ncc(-c3nn[nH]n3)c2N)cc1
Second: O=S(=O)(NCc1ccccc1Cl)c1ccc(-n2cccn2)cc1
The “hERG current change (%, negative = inhibition) at 1uM” value of the first is higher: 17.8% for the first, 12.7% for the second.

First: CCOC(=O)N1CCN(S(=O)(=O)N2CCCC(C(=O)NCc3ccc(OC)cc3)C2)CC1 (centres unmarked)
Second: COc1ccc(S(=O)(=O)N2CCN3CCCC3C2)cc1 (centres unmarked)
The “hERG current change (%, negative = inhibition) at 1uM” value of the first is lower: 14.4% for the first, 17.3% for the second.

First: OCC[C@H]1C[C@@H](O)[C@H](O)[C@@]2(OCc3ccccc32)O1
Second: OCC[C@@H]1C[C@@H](O)[C@H](O)[C@]2(CCc3ccccc3CO2)O1
The “hERG current change (%, negative = inhibition) at 1uM” value of the first is lower: 9.4% for the first, 17.4% for the second.

Compared with `Cc1cc(C)cc(NC(=O)Nc2cnccn2)c1`, `CCn1ncc(Br)c1C(=O)Nc1cc(C)cc(C)c1` is higher in “hERG current change (%, negative = inhibition) at 1uM” value: 6.81% for the first, 10.9% for the second.

First: Cc1c(CCOC(=O)C23CC4(C)CC(C)(CC(C)(C4)C2)C3)sc[n+]1CC(=O)c1ccccc1.[Br-]
Second: CC1=C(C(=O)OCCOc2ccccc2)C(c2ccsc2)NC(=O)N1C (centres unmarked)
The “hERG current change (%, negative = inhibition) at 1uM” value of the first is lower: 5.87% for the first, 11.6% for the second.

Going from `CCc1cc(C(=O)N2CCCC(C(=O)c3cccc(OC(C)C)c3)C2)n(C)n1` (centres unmarked) to `CC(=O)c1cccc(NC(=O)Cn2cc3c(n2)CCCC3)c1`, the “hERG current change (%, negative = inhibition) at 1uM” value falls from 9.14% to 6.93%.

Going from `Cc1ccc(CCSCC(=O)O)cn1` to `CCOC(=O)c1cc(-c2ccccc2)nn1CCC#N`, the “hERG current change (%, negative = inhibition) at 1uM” value falls from 8.05% to 4.87%.

Going from `CCC1CCCCN1C(=O)CCc1nnc(C2CCCCC2)o1` (centres unmarked) to `O=C(NCCCc1ccc(F)cc1)C1CCC(=O)N(CC2CCCCC2)C1` (centres unmarked), the “hERG current change (%, negative = inhibition) at 1uM” value falls from 6.08% to 4.59%.

First: Cc1nc2ccsc2c(=O)n1-c1ccccc1Cl
Second: Cn1c(N)c(C(=O)NCc2ccccc2Cl)sc1=S
The “hERG current change (%, negative = inhibition) at 1uM” value of the first is lower: 11.4% for the first, 16.9% for the second.

Going from `CN(C)c1ccc(CNC(=O)CCNS(=O)(=O)c2cc(Br)cnc2N)cc1` to `Cc1cc(=O)oc(C)c1C(=O)Nc1ccc(N(C)C)cc1`, the “hERG current change (%, negative = inhibition) at 1uM” value falls from 14.5% to 12.4%.

Going from `CCCOc1cccc(C(=O)N(Cc2ccco2)C2CCS(=O)(=O)C2)c1` (centres unmarked) to `O=C(COc1ccc(Cl)cc1Cl)N(C1CCCCC1)C1CCS(=O)(=O)C1` (centres unmarked), the “hERG current change (%, negative = inhibition) at 1uM” value rises from 3.56% to 4.95%.

Compared with `CCOC(=O)N1CCN(C(=O)Cc2c(C(=O)O)n(C)c3ccccc23)CC1`, `CCOC(=O)N1CCN(CC(=O)Nc2ccc(C)c(Br)c2)CC1.Cl` is lower in “hERG current change (%, negative = inhibition) at 1uM” value: 11.5% for the first, 3.62% for the second.

Compared with `c1cncc(-c2nc(-c3ccco3)cs2)c1`, `COc1ccc2cc(-c3ccccc3F)ncc2c1` is lower in “hERG current change (%, negative = inhibition) at 1uM” value: 5.44% for the first, 3.66% for the second.

Compared with `O=S(=O)(Nc1cccc(S(=O)(=O)N2CCCC2)c1)c1cccc(Br)c1`, `CN(C)S(=O)(=O)c1cccc(NC(=S)Nc2ccc(Cl)cc2Cl)c1` is higher in “hERG current change (%, negative = inhibition) at 1uM” value: -3.6% for the first, 15.3% for the second.

Compared with `CC(O)C(=O)N/N=C/c1cccc(Cl)c1Cl` (centres unmarked), `COCC(=O)OCC(=O)Nc1ccc(Cl)cc1[N+](=O)[O-]` is higher in “hERG current change (%, negative = inhibition) at 1uM” value: 5.85% for the first, 14.3% for the second.

First: CCOc1cc(/C=N/NC(=O)c2ccncc2)ccc1OC(=O)c1ccccc1
Second: O=C(CC1S/C(=N/N=C/C=C/c2ccccc2)NC1=O)Nc1ccc(C(=O)O)cc1 (centres unmarked)
The “hERG current change (%, negative = inhibition) at 1uM” value of the first is higher: 11.3% for the first, 8.7% for the second.

Compared with `O=C1CNC(=O)/C(=C\c2ccc(F)cc2)N1`, `O=C1CC(NCc2ccncc2)C(=O)N1c1ccc(Cl)cc1` (centres unmarked) is higher in “hERG current change (%, negative = inhibition) at 1uM” value: 13.7% for the first, 14.3% for the second.

Going from `CCN1C(=NCC(C)C)N[C@@H](CCc2ccccc2)[C@H](C(=O)NCC(C)C)[C@H]1C` to `CCOCC(O)CNc1ccccc1` (centres unmarked), the “hERG current change (%, negative = inhibition) at 1uM” value rises from -8.26% to 16.2%.

First: CC(C)NC(=O)CN1CCN(Cc2nc(-c3cccs3)no2)CC1
Second: Cn1c(=O)c2sccc2n2c(CCCC(=O)NC3CCN(Cc4ccccc4)CC3)nnc12
The “hERG current change (%, negative = inhibition) at 1uM” value of the first is higher: 14.1% for the first, 13.2% for the second.

Going from `O=C(O)CN1C(=O)C2C3C=CC(C3)C2C1=O` (centres unmarked) to `CN1C(=O)CC(C(=O)O)SC1=Nc1cc(Cl)c(O)c(Cl)c1` (centres unmarked), the “hERG current change (%, negative = inhibition) at 1uM” value falls from 7.44% to 5.3%.

Going from `CC(=O)Oc1ccccc1/C=C/c1ccc2ccccc2[n+]1C.[I-]` to `O=C(c1cc(-c2ccc(Br)cc2)nc2ccccc12)N1CCC1`, the “hERG current change (%, negative = inhibition) at 1uM” value rises from 9.22% to 11.1%.

Going from `CC(OC(=O)CCc1nc2ccccc2c(=O)[nH]1)C(=O)NCc1ccc2c(c1)OCO2` (centres unmarked) to `O=C(CCC1CCCN(Cc2cccc3c2OCO3)C1)NCc1ccc(F)c(F)c1` (centres unmarked), the “hERG current change (%, negative = inhibition) at 1uM” value falls from 10.1% to -31.1%.

Compared with `COc1ccc(CCNC(=O)c2ccc(NC(=O)CC3SC(N4CCCC4)=NC3=O)cc2)cc1` (centres unmarked), `COc1cccc(CCNC(=O)C2CCC(=O)N(Cc3cccc(OC)c3)C2)c1` (centres unmarked) is lower in “hERG current change (%, negative = inhibition) at 1uM” value: 10.5% for the first, 7.27% for the second.

Going from `COc1ccc([C@]2(C(C)C)ON(c3ccccc3C(F)(F)F)C2=O)cc1` to `COC(=O)c1sccc1NC(=O)Cc1ccc(OC)cc1`, the “hERG current change (%, negative = inhibition) at 1uM” value falls from 14.1% to -0.194%.

First: CC(C)(C)NC(=O)C(c1ccc(F)cc1)N(Cc1ccco1)C(=O)Cn1nnc(-c2cccs2)n1 (centres unmarked)
Second: COc1cc(OC)c(-c2sc(Nc3ccccc3)n[n+]2-c2ccc(F)cc2)cc1OC.[Cl-]
The “hERG current change (%, negative = inhibition) at 1uM” value of the first is higher: 13.5% for the first, 8.76% for the second.

Going from `O=C1CCC2CCCCC2(O)O1` (centres unmarked) to `O=C1CCC(C(=O)O)N1` (centres unmarked), the “hERG current change (%, negative = inhibition) at 1uM” value rises from 9.04% to 13%.

First: O=C(Cn1cc2c(n1)CCCCC2)NCc1ccccc1
Second: S=C(c1ccc(-c2ccccc2)o1)N1CCCCC1
The “hERG current change (%, negative = inhibition) at 1uM” value of the first is lower: -6.65% for the first, 15.6% for the second.

Going from `Cc1ccc(C)n1-c1ccc(C(=O)NCC2CCCO2)cc1` (centres unmarked) to `C[C@H](NS(=O)(=O)c1ccccc1F)C(=O)OCC(=O)N1CCc2ccccc21`, the “hERG current change (%, negative = inhibition) at 1uM” value rises from 5.92% to 18.3%.

First: Cc1[nH]c2ccc(F)cc2c(=O)c1SC(F)(F)C(F)C(F)(F)F (centres unmarked)
Second: CCOC(=O)CSc1cc(C(F)(F)F)nc(-c2ccccn2)n1
The “hERG current change (%, negative = inhibition) at 1uM” value of the first is higher: 6.01% for the first, -7.97% for the second.

First: COc1ccc(NC(=O)N2CCCC2C(=O)NC23CC4CC(CC(C4)C2)C3)cc1 (centres unmarked)
Second: COC(=O)c1cc(NC(=O)c2cc3ccccc3o2)cc(C(=O)OC)c1
The “hERG current change (%, negative = inhibition) at 1uM” value of the first is lower: 9.75% for the first, 13.4% for the second.

Compared with `CCOC(=O)CSc1cc(C)nc(N)n1`, `CCOC(=O)C1CCN(CC(O)COCc2ccc3c(c2)OCO3)CC1.Cl` (centres unmarked) is higher in “hERG current change (%, negative = inhibition) at 1uM” value: -4.82% for the first, 1.96% for the second.

Compared with `Cc1c(Br)c([N+](=O)[O-])nn1CCCC(=O)Nc1c(C)n(C)n(-c2ccccc2)c1=O`, `Cc1cc(NC(=O)Cc2cc(F)cc(F)c2)no1` is higher in “hERG current change (%, negative = inhibition) at 1uM” value: 13.4% for the first, 19.4% for the second.

First: Clc1nnc(N2CCCCC2)c2ccccc12
Second: CC(C)(C)C(=O)NC(=S)NNC(=O)c1ccncc1
The “hERG current change (%, negative = inhibition) at 1uM” value of the first is lower: 2.42% for the first, 16.2% for the second.
